Source: patent publication US20260265359A1 (Hoffmann-La Roche, published 2026)

Key:
Experiment in all cases: ELISA, cross species binding
recombinant human Ang-2 = biological target: T1, recombinant human Ang-2 (human, UniProt O15123 19-496, limits assumed)
T1 construct: also called Angiopoietin-2; hAng-2
T1 sequence (looked up): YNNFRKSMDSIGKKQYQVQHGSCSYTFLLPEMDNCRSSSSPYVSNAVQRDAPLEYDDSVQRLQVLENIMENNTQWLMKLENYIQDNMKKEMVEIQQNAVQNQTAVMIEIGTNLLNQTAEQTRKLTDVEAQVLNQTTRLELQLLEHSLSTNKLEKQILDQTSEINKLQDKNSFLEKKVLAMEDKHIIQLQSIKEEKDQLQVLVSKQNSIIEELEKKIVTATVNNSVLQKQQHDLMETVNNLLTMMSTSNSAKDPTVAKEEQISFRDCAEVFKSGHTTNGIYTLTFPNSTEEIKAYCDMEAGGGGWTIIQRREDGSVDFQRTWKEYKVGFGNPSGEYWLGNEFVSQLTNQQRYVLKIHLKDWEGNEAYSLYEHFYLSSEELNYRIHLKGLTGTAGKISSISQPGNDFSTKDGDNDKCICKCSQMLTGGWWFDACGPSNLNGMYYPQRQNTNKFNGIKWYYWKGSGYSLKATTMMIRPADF

Rhesus monkey IL-6R = biological target: T2, Rhesus monkey IL-6R (Rhesus monkey, UniProt A0A5F8AUE5 20-365)
T2 sequence: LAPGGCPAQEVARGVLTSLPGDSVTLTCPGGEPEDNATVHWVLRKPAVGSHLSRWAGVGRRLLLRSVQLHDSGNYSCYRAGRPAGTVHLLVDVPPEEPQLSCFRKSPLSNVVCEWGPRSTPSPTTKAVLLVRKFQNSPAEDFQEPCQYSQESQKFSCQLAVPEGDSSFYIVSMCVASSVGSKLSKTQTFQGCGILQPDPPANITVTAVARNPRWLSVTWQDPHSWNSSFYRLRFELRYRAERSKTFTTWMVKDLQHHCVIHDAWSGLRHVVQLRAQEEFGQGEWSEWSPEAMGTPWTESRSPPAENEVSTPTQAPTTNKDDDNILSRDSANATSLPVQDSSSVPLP

rat Ang-2 = biological target: T3, rat Ang-2 (rat, UniProt O35462 19-496, limits assumed)
T3 sequence (looked up): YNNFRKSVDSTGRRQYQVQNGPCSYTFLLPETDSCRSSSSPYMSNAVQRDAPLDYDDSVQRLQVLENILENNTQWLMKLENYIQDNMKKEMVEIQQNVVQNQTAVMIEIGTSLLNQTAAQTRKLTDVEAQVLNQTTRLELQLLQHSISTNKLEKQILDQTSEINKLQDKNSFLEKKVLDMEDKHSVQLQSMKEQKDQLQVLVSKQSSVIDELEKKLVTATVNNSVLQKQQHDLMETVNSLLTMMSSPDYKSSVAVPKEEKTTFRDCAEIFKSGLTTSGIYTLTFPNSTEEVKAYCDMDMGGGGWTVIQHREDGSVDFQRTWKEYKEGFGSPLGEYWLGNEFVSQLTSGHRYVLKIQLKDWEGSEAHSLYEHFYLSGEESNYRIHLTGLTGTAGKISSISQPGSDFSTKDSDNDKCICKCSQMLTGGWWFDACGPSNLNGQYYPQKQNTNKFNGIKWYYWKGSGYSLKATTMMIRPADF

B1: EB-105BI-7CB (other)
heavy: QVQLQESGPGLVRPSQTLSLTCTVSGYSITSDHAWSWVRQPPGRGLEWIGYISYSGITTYNPSLKSRVTMLRDTSKNQFSLRLSSVTAADTAVYYCARSLARTTAMDYWGQGSLVTVSSASTKGPSVFPLAPSSKSTSGGTAALGCLVKDYFPEPVTVSWNSGALTSGVHTFPAVLQSSGLYSLSSVVTVPSSSLGTQTYICNVNHKPSNTKVDKKV[human IgG1 Fc skipped]GGSGGGGSAQTNFMPMDDLEQRLYEQFILQQGLE
light: SDTGRPFVEMYSEIPEIIHMTEGRELVIPCRVTSPNITVTLKKFPLDTLIPDGKRIIWDSRKGFIISNATYKEIGLLTCEATVNGHLYKTNYLTHRQTNTIIDVVLSPSHGIELSVGEKLVLNCTARTELNVGIDFNWEYPSSKHQHKKLVNRDLKTQSGSEMKKFLSTLTIDGVTRSDQGLYTCAASSGLMTKKNSTFVRVHEKDIQMTQSPSSLSASVGDRVTITCRASQDISSYLNWYQQKPGKAPKLLIYYTSRLHSGVPSRFSGSGSGTDFTFTISSLQPEDIATYYCQQGNTLPYTFGQGTKVEIKRTVAAPSVFIFPPSDEQLKSGTASVVCLLNNFYPREAKVQWKVDNALQSGNSQESVTEQDSKDSTYSLSSTLTLSKADYEKHKVYACEVTHQGLSSPVTKSFNRGEC
notes: Trispecific antibody fusion protein, first embodiment; lead molecule; also called B21138002
binding affinity measured by ELISA (recombinant human Ang-2): 0.0643 nM | binding affinity measured by ELISA (Rhesus monkey IL-6R): 0.0498 nM | binding affinity measured by ELISA (rat Ang-2): 0.508 nM
